Read counts are not given, so values of variants with three or more changes are uncertain.
B1: LINE1-mini (parent)
chain: GGCAGAGCUCAACACAGCGUGGCAAAGUGGCUGUGGCUAGACUGCC

Variants of: B1
Test: self-cleavage, relative activity (ratio to wild type); higher = more cleavage; in vitro, sequencing; the parent is a self-cleaving ribozyme

Variant | self-cleavage
U9A C10A U20C C42A | 0.01
C23G G30A C31U | 0.05
A12C U20G G44A | 0.03
C13A C42A U43A | 0.05
G7A C10U A24G U28G | 0.02
G17U U20G U32A U38A | 0.03
G2U U28C G36C | 0.05
C18G G21U C45U | 0.09
G5C G22A U32A | 0.02
G1U G30C U32C | 0.13
C13U G44C C45U | 0.11
G7A C8G A14U | 0.03
G22C A24G U38A A41G | 0.09
C10A G30C A39U | 0.15
C8G G21U G27A C31G | 0.01
G1A C3U G29U | 0.49
G5C G7U G29U | 0.23
C23A U28A G29A U34C A41U | 0.3
A4U G5U C23A A25G U38C | 0.03
C10G A14G G21U | 0.05
A6G C15U U34C | 0.02
C3G A11U C15A | 0.03
G5C G30U U32A C42G | 0.04
G1A C3A G17A | 1.6

Variant | self-cleavage
G1U U9G G19U | 0.01
C10A A16U U43C | 0.02
G1U A14G G29U U34G G40C | 0
C10U A24C G29C U32A U38C A39U | 0.02
C8G C10A A12U A14C C42G G44C C45A | 0.01
U9C A11G G21U A39C | 0
G17A G36U C45G | 0
A4U G5U G35C | 0.08
C3A C23U C45G | 0.28
G2C A4U C8A C31G | 0.2
G17U G21U C42A | 0.05
A25U G35U A39G | 0.03
A12G A26C C37U G44U | 0.03
A12G C15A C31G | 0.02
A4C C18U C37A C46G | 0.28
A6G C8U C15A A16G C18G G40A | 0.21
A4G G7U U32G G40U | 0.33
A12G G27U C42G | 0
A11G A25U C37U C45G | 0.01
G36A C37A C45A | 0.3
A4G G17A U32G | 0.04
G7A C37U G40U | 0.1
A14U C18A G19U C37U G40C | 0.02
G7A G30U C31A G33U | 0.64

Variant | self-cleavage
A6U G30C U43A | 0.03
A4U A16U A26G C42U | 0.12
G7C G21C G27A G30U G40A G44U | 0.02
G2C U28A U32A G33A C42U | 0.03
G5C G7A U9A G22U G33U U43C | 0.5
A4U G7U U20A A41C | 0.02
A4U C10G G35C C37A | 0.03
G1U G17C A41U | 0.04
A6C A24U G27C U28G | 0.09
G2U A11C G22U C23U | 0.07
A12G A24G U43C | 0.03
G5A A6C G36A | 0.08
C13A A16C G27A U32C G36C | 0.05
G2U G7U C18G G19C | 0.03
A4G G17U G19A | 0.27
A25U G35U G44U | 0.03
G21A C23A G35A | 0.4
A11C A12C G29U C31G | 0.02
C3U A39C G44C | 0.09
G2A C3U C8U G19A G22U C42U C46A | 1.57
C8A C31A C37A | 0.1
G1C G29C A39U G40C C42G | 0.03
G7U A16C U20A A24G G35U | 0.01
C8A A26G G30A | 0.39

Variant | self-cleavage
G17C C37G U38C | 0.15
G29C U38A C42U | 0.11
C23G A24C G33C | 0.01
A12C A26C A39C | 0
A4U A11U A16C G44U | 0
G2U U9C G17U G35U | 0.07
G5U A14U C23A G44U | 0.07
C10G U20C A25U | 0.06
G5A C10U G17C C18G | 0.02
G17U G27A G33U U43G C45A | 0.06
G19U G29U G35C | 0.09
G2A C8U G19C U34G G35U | 0.14
U32C U34C C37A G40U | 0.06
U9G G19U U20A C37U | 0
A26C G36A G44C | 0.12
A6U G22U G40C G44A | 0.3
G22U G36C G40A U43G | 0.07
G1A C3U A11U G29C G36A | 0.08
C10A A24G G29U | 0
G7U C15A G40A | 0.09
A6U C18U G21A C37U | 0.04
U9C C10G A39C | 0.02
G2A G17U A41C | 0.02
C3G C31G G40A | 0.19

Variant | self-cleavage
U9C G22A C23U | 0.01
U9G A12C G35A | 0.04
A4G C15A G17A A26G | 0.05
C13G A25G C31U G36A C37U | 0.08
G2U A14U U28G G29U G33C | 0.02
G1A A16C U28G | 0.39
A6G C23A G27A G33U | 0.08
G5U U32A G35C | 0.06
A6G G17C U28G U43G | 0
C3G G21U G22U U32A | 0.03
C8A A26G G40A C42U | 0.1
G7U C13U A14C C15A G19A G21C A25U G27U | 0.03
C3U A26U G36A | 0.79
C3U A4C A26C G29A | 0.04
G5A G19U G21A A25U | 0.41
G5C G22U A26U C46U | 0.06
G7C C13U C15A G17C C31A | 0.01
G22A G36C A41U | 0.21
C18G A25U U34C G40A G44C | 0.03
C10G G17C G40U | 0
A11C U20G G44U | 0
C3U A12G G30U G33U U34G C45A | 0
A14U G33A A41C | 0.05
G19U C23U G29A G35U | 0.05

Variant | self-cleavage
G19A C31A G44C | 0.09
G1C G22C A39U C45A | 0.06
A14U G22U C46U | 1.32
G2A U9C G22C G29U G35U C37A A39G A41U | 0.01
C18U A26C G27A | 0.66
G5A U9C A24G A25G A39U | 0.04
A25U G35U C37A | 0.03
C3A G33U A39U C45U | 0.22
G1U C3A C8G G36A | 0.1
G5U C23A A25C | 0.04
G7A U20A G21A G22U | 0
C13G G29U C37U C45A | 0.14
A24G A41C C42A | 0.05
C8G C23G G27C | 0.02
G5U C10A C15G A26C U32A | 0.01
A4C C13U G17A G21U G33C U34A G44U | 0.01
A14U G22U A41U | 0.15
C13U C15A A26U | 0.2
C3G G21U G35C C37G U38A G40A | 0.03
G5U G22A C46A | 0.02
A6U A11C C13G U20A C37G C45A | 0
G1C A4G C13G G19U G21C G29A | 0
G1U A14U U38G | 0.01
C8G C15G A39G G40U C45U | 0.01

Variant | self-cleavage
G1U C13G G27C | 0.01
C8U G19U G29U G30U G40U | 0.72
G27U U34C C45G | 0.08
G1C A4C C23A C37G | 0.05
C3U G19C C45G | 0.04
C10A A11U C18U G19U U20G C31A C45A | 0.01
C13A U34A G35A | 0.14
A4U G5C G22A U34A U38A C46U | 0.02
G30A U43A C46G | 0.04
A6G U28G G33U C37G | 0.07
G1A A25G G30C | 0.24
G19C C37A A39G | 0.01
A12G C18A G22A A26U | 0.01
C3U A16G G19U U38G G44A | 0.02
G1U C10U G27C C31A C37A G44A | 0.01
A16C G21C U38A C42A U43G | 0.06
C8A C15A A41U | 0.59
G22A G29A C46U | 2.15
G17A G22U C23A A24G | 0.07
A11C C13G C15U C18G G29C U32A G35C A39C | 0
A12U G19A U38G | 0.03
A16U A25U G35U G40U | 0.03
C8A G22A G30A | 0.05
